The chains are these.
B1: CPEB3 Ribozyme (parent)
chain: UAACAGGGGGCCACAGCAGAAGCGUUCACGUCGCAGCCCCUGUCAGAUUCUGGUGAAUCUGCGAAUUCUGCUGUAUAUCUC

Read counts are not given, so values of variants with three or more changes are uncertain.

The variants in this data set derive from B1. Put plainly: self-cleavage, relative activity (ratio to wild type); higher = more cleavage; in vitro, sequencing. Put shortly:
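Barcoded CPEB3 ribozyme mutants, produced by rounds of error-prone PCR, self-cleaved while being transcribed with T7 RNA polymerase for 5 hours at 37°C and during a subsequent 15 min DNase I step before EDTA was added. Sequencing of template-switched cDNA on Illumina gave cleaved and total reads, and DNA sequencing assigned barcodes to variants. Each variant's relative activity is its cleaved/total read fraction divided by the unmutated ribozyme's fraction, averaged across three batches. A variant needed a minimum of 5 reads.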
Take A21G A35G A56G U60C U78C: the self-cleavage stood at 0.24.
Next, A21G A35G U51A: 1.32; A20U U31A U78C: 0.11.
Then A21G A35G U78C, with 1.12; and A21G A56U U72C U78C, with 0.24; and A20U U26C A47U U60C, with 0.08.
Then A21G A64G U74C A75G, with 0.52; and A20U U43A G46U U54C G63A A77U, with 0.04.
In the case of A21G A45U U58C A65G, the self-cleavage was 0.05.
On to A21G C27A U41C U54C, for which the self-cleavage amounted to 0.13.
Next, A20U U51A A65G U66C U69C: 0.13; A20U U31A A35G U43C A57G U76C: 0.16; A21G A45G U60C U76A: 0.41.
Next, A21G A57C U72C U78C: 0.23; A20U U26C U60C U67C U72C A75G: 0.11; A21G A45G U49C A75G: 0.16.
For the variant A21G C23U U60C, the self-cleavage came out at 0.17.
Then A21C U25C U51C, with 0.25; and A21G A47G U51C U78C, with 0.25; and A20U U60C U69C, with 0.11.
Then A21G A45G U48C G52U A56G A57G U58C, with 0.07; and A21G A35C A56G, with 0.03.
Turning to A20U U41C A57G U74C, the self-cleavage was found to be 0.34.
Next, A21G C23G A35U U58C U60C C62U: 0.02.
Next, A21C U48C C71U: 0.11.
Then A20U U31C C32G C37G U43A A64U, with 0.11.
Take A21G A45U U80C: the self-cleavage came to 0.52.
Then A21G A35U U60A U76C, with 0.07; and A21G C29U C38A C40U U43C U51A, with 0.19; and A20U U41C G42A, with 0.37.
Regarding A21G A28G U41A A56U U76G A77U, the self-cleavage is 0.24.
Then A21G C27U U41C U66C, with 0.25; and A21G C29U A35U A47G U66A C81U, with 0.04.
Next, A20U U26A A45G U66A C68U: 0.23; A21G C29U A35G U41C: 0.56; A21G A64U U80A: 0.25.
Then A21C U48A C50A, with 0.08; and A20U U43A A45U C62A A64C, with 0.14; and A21G A35U A45G U51C U69A, with 0.09.
In the case of A21G A45U U76A, the self-cleavage was determined as 0.51.
Next, A21C U31C U48C U51C A64G U69C U72C: 0.08; A21G A28C C39G A57G C79G: 0.33; A20U U26C C32A C71A U72C: 0.09.
Next, A21G A28U C39A A45U A56G: 0.13; A21G A35G G63A A77G: 1.17.
Then A21G A35G A45G U74A U80C, with 1.2; and A21G A28G A35U U43C U67C, with 0.1.
With A21G A35U C40A C68A U78G, the self-cleavage stood at 0.04.
Next, A20U U26C U69A: 0.08.
Next, A21G A56G U72A: 0.14.
In the case of A21G A28G A35G A56G, the self-cleavage came out at 0.64.
Then A21C A64G A65G U69C A77G, with 0.05.
Then A21G A65G C68G U69A, with 0.12; and A21G A57G U69A U80C, with 0.15; and A21G A56G G73U U74C, with 1.07.
Next, A21G A35U A64U: 0.08.
Take A21G A28U G30A A35G U41C U74A: the self-cleavage was 0.16.
Next, A21C A28G G30U A64G: 0.05; A21G A45G U49C U67A: 0.24.
Turning to A20U U54C U72A, the self-cleavage came to 0.24.
Then A20U U69C G70C, with 0.07.
With A20U U43A U74A, the self-cleavage was 0.78.
Then A21G A64G U74A A75U, with 0.69; and A21G A45U A75G, with 0.15.
Then A21G A35G G61A U69C U72A U78C, with 0.5.
Then A21G A56G U72G U76A, with 0.2; and A21C A64U U78C, with 0.07.
Turning to A21G A35G U41A A57G, the self-cleavage came to 0.29.
Then A21G C23U U43C G52C A64U U78A, with 0.06.
A21G A56U U72C U74C: the self-cleavage turned out to be 0.18.
Then A21G A45G U72G, with 0.06.
Then A21G A45G U72C, with 0.61; and A20U U43C A47G U51C U54C, with 0.18.
Next, A21G A28G A45G U51C U54A: 0.15; A20U U41G U72C U78C: 0.33.
With A21G A28G U31C U78C, the self-cleavage worked out at 0.07.
Next, A21G A35G U41C: 1.26; A20U U51A C59G U78C: 0.16; A21G A28G U43C G52A A65G A77G: 0.05.
Next, A20U U60C C68G: 0.23; A21G A28G A45C U60C C62U U69C: 0.06; A21G A28G U48C A77U: 0.56.
Next, A21G A28G A35G U48C U58G: 0.47.

(Values after the RNAGym collection of RNA variant scans (doi:10.1093/nar/gkz1192).)
